The record followed here is article PMC12820563, “FoxP3 forms a head-to-head dimer in vivo and stabilizes its multimerization on adjacent microsatellites”.

This is one part of the list.

This assay has as its target T1, MBP-FoxP1dN (Mus musculus, UniProt P58462 326-579).
T1 sequence: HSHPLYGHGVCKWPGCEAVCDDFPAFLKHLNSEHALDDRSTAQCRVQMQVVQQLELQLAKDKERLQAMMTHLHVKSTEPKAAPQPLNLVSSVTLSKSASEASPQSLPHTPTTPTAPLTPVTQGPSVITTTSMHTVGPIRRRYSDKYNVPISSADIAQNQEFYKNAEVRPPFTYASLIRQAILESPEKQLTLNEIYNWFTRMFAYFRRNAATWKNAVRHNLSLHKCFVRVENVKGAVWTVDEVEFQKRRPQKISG
As to the kind of experiment: PD-seq (MBP pull-down with sequencing); 20 mM Tris-HCl pH 7.5, 100 mM NaCl, 1.5 mM MgCl2, 0.4 uM protein, 0.1 uM dsDNA library, 30 min, room temperature, amylose pull-down; high values mean tight binding. Particulars: protein: recombinant; tags: His6-MBP; chain copies: 2; dsDNA, one strand shown. The procedure, abridged:
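Amylose resin was used to capture complexes formed during 30 min at room temperature in Tris pH 7.5 buffer with NaCl and MgCl2 between 0.4 µM His6-MBP-tagged mouse FoxP3 or FoxP1 fragment lacking the N-terminus, expressed in E. coli, and 0.1 µM Klenow-filled double-stranded degenerate DNA library. After three washes, the DNA was released with proteinase K, barcoded by PCR and sequenced on Illumina. Binding is pooled-replicate reads-per-million enrichment, pull-down over input.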
“GATGATTGTTCTCCCAGCTGATGAATTAAGGGATTCGAGTAAACAAATTTTCCTAATCTTTCTGTTCAAGCGCCATCTAC”: the binding signal is 0.998 RPM ratio (pull-down/input).

Take “GATGATTGTTCTCCCAGCTGATGAATTCACGTCCTCGAGTAAACAAATTTTCCTAATCTTTCTGTTCAAGCGCCATCTAC”: the binding signal is 0.806 RPM ratio (pull-down/input).

Regarding “GATGATTGTTCTCCCAGCTGATGAATTTAATGCATCGAGTAAACAAATTTTCCTAATCTTTCTGTTCAAGCGCCATCTAC”, the binding signal was 1.43 RPM ratio (pull-down/input).

Regarding “GATGATTGTTCTCCCAGCTGATGAATTTGTTTAATCGAGTAAACAAATTTTCCTAATCTTTCTGTTCAAGCGCCATCTAC”, the binding signal was 1.64 RPM ratio (pull-down/input).

For “GATGATTGTTCTCCCAGCTGATGAATTAAGCCCCTCGAGTAAACAAATTTTCCTAATCTTTCTGTTCAAGCGCCATCTAC”, the binding signal is 0.8 RPM ratio (pull-down/input).

On to “GATGATTGTTCTCCCAGCTGATGAATTATCCTAGTCGAGTAAACAAATTTTCCTAATCTTTCTGTTCAAGCGCCATCTAC”, for which the binding signal was 0.969 RPM ratio (pull-down/input).

Turning to “GATGATTGTTCTCCCAGCTGATGAATTTCATAGATCGAGTAAACAAATTTTCCTAATCTTTCTGTTCAAGCGCCATCTAC”, the binding signal is 0.88 RPM ratio (pull-down/input).

As for “GATGATTGTTCTCCCAGCTGATGAATTTTTATAGTCGAGTAAACAAATTTTCCTAATCTTTCTGTTCAAGCGCCATCTAC”, the binding signal was 1.05 RPM ratio (pull-down/input).

Regarding “GATGATTGTTCTCCCAGCTGATGAATTACTGGCTTCGAGTAAACAAATTTTCCTAATCTTTCTGTTCAAGCGCCATCTAC”, the binding signal is 0.917 RPM ratio (pull-down/input).

For the sequence “GATGATTGTTCTCCCAGCTGATGAATTTCGCGGCTCGAGTAAACAAATTTTCCTAATCTTTCTGTTCAAGCGCCATCTAC”, the binding signal was 0.819 RPM ratio (pull-down/input).

For “GATGATTGTTCTCCCAGCTGATGAATTGTTGGCATCGAGTAAACAAATTTTCCTAATCTTTCTGTTCAAGCGCCATCTAC”, the binding signal was 1.51 RPM ratio (pull-down/input).

With “GATGATTGTTCTCCCAGCTGATGAATTAGAGAGTTCGAGTAAACAAATTTTCCTAATCTTTCTGTTCAAGCGCCATCTAC”, the binding signal was 0.844 RPM ratio (pull-down/input).

For “GATGATTGTTCTCCCAGCTGATGAATTCAGCCCGTCGAGTAAACAAATTTTCCTAATCTTTCTGTTCAAGCGCCATCTAC”, the binding signal was 0.791 RPM ratio (pull-down/input).

With “GATGATTGTTCTCCCAGCTGATGAATTAGAAGAGTCGAGTAAACAAATTTTCCTAATCTTTCTGTTCAAGCGCCATCTAC”, the binding signal is 0.873 RPM ratio (pull-down/input).

For the sequence “GATGATTGTTCTCCCAGCTGATGAATTTAAGACATCGAGTAAACAAATTTTCCTAATCTTTCTGTTCAAGCGCCATCTAC”, the binding signal is 1.05 RPM ratio (pull-down/input).

As for “GATGATTGTTCTCCCAGCTGATGAATTGGCCTCATCGAGTAAACAAATTTTCCTAATCTTTCTGTTCAAGCGCCATCTAC”, the binding signal was 0.891 RPM ratio (pull-down/input).

“GATGATTGTTCTCCCAGCTGATGAATTGAGAGATTCGAGTAAACAAATTTTCCTAATCTTTCTGTTCAAGCGCCATCTAC”: the binding signal is 0.823 RPM ratio (pull-down/input).

For the sequence “GATGATTGTTCTCCCAGCTGATGAATTGTCTAATTCGAGTAAACAAATTTTCCTAATCTTTCTGTTCAAGCGCCATCTAC”, the binding signal is 1.21 RPM ratio (pull-down/input).

With “GATGATTGTTCTCCCAGCTGATGAATTCAGGGAGTCGAGTAAACAAATTTTCCTAATCTTTCTGTTCAAGCGCCATCTAC”, the binding signal was 0.833 RPM ratio (pull-down/input).

With “GATGATTGTTCTCCCAGCTGATGAATTAGTTTCATCGAGTAAACAAATTTTCCTAATCTTTCTGTTCAAGCGCCATCTAC”, the binding signal was 0.996 RPM ratio (pull-down/input).

Consider “GATGATTGTTCTCCCAGCTGATGAATTGGTACCATCGAGTAAACAAATTTTCCTAATCTTTCTGTTCAAGCGCCATCTAC”, for which the binding signal is 1.08 RPM ratio (pull-down/input).

Consider “GATGATTGTTCTCCCAGCTGATGAATTTCATAATTCGAGTAAACAAATTTTCCTAATCTTTCTGTTCAAGCGCCATCTAC”, for which the binding signal was 0.937 RPM ratio (pull-down/input).

On to “GATGATTGTTCTCCCAGCTGATGAATTTATTAAGTCGAGTAAACAAATTTTCCTAATCTTTCTGTTCAAGCGCCATCTAC”, for which the binding signal is 1.25 RPM ratio (pull-down/input).

As for “GATGATTGTTCTCCCAGCTGATGAATTAGTCCACTCGAGTAAACAAATTTTCCTAATCTTTCTGTTCAAGCGCCATCTAC”, the binding signal is 0.937 RPM ratio (pull-down/input).

As to “GATGATTGTTCTCCCAGCTGATGAATTTGACCTTTCGAGTAAACAAATTTTCCTAATCTTTCTGTTCAAGCGCCATCTAC”, the binding signal is 0.814 RPM ratio (pull-down/input).

For “GATGATTGTTCTCCCAGCTGATGAATTCGGACGGTCGAGTAAACAAATTTTCCTAATCTTTCTGTTCAAGCGCCATCTAC”, the binding signal is 0.816 RPM ratio (pull-down/input).

“GATGATTGTTCTCCCAGCTGATGAATTTAGATACTCGAGTAAACAAATTTTCCTAATCTTTCTGTTCAAGCGCCATCTAC”: the binding signal was 1.17 RPM ratio (pull-down/input).

On to “GATGATTGTTCTCCCAGCTGATGAATTAGTCAAGTCGAGTAAACAAATTTTCCTAATCTTTCTGTTCAAGCGCCATCTAC”, for which the binding signal was 0.886 RPM ratio (pull-down/input).

As to “GATGATTGTTCTCCCAGCTGATGAATTAAACGTCTCGAGTAAACAAATTTTCCTAATCTTTCTGTTCAAGCGCCATCTAC”, the binding signal is 0.828 RPM ratio (pull-down/input).

With “GATGATTGTTCTCCCAGCTGATGAATTATAATGGTCGAGTAAACAAATTTTCCTAATCTTTCTGTTCAAGCGCCATCTAC”, the binding signal is 1.05 RPM ratio (pull-down/input).

Turning to “GATGATTGTTCTCCCAGCTGATGAATTGAGAAAGTCGAGTAAACAAATTTTCCTAATCTTTCTGTTCAAGCGCCATCTAC”, the binding signal is 0.827 RPM ratio (pull-down/input).
